This assay has as its target T1, recombinant human 5T4 protein (5T4/His) (UniProt Q13641 32-355).
T1 chain: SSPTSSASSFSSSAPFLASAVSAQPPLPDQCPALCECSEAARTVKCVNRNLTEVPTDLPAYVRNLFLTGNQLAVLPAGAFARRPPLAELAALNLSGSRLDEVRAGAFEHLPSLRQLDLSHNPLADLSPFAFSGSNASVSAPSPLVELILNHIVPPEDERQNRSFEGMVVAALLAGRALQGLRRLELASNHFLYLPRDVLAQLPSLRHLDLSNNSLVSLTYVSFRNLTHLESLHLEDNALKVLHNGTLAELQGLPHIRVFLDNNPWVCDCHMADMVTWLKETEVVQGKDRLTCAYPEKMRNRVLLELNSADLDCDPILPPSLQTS
The assay is described as follows: ELISA.

B1: 53L10 tribody (other)
chain 1: QVQLVQSGAEVKKPGASVKVSCKASGYSFTSYYMHWVKQSPGQGLEWIGRINPNNGVTLYNQKFKDRVTMTRDTSISTAYMELSRLRSDDTAVYYCARSTMITNYVMDYWGQGTLVTVSSASTKGPSVFPLAPSSKSTSGGTAALGCLVKDYFPEPVTVSWNSGALTSGVHTFPAVLQSSGLYSLSSVVTVPSSSLGTQTYICNVNHKPSNTKVDKKVEPKSCDKTHTGPGGGSPGQVQLVQSGAELKKPGASVKVSCKASGYTFTRYTMHWVRQAPGQCLEWMGYINPSRGYTNYNQKFKDKATLTADKSTSTAYMELRSLRSDDTAVYYCARYYDDHYSLDYWGQGTLVTVSSASGGGGSGGGGSGGGGSAGDIQLTQSPSILSASVGDRVTITCRASSSVSYMNWYQQKPGKAPKRWIYDTSKVASGVPYRFSGSGSGTEYTLTISSMQPEDFATYYCQQWSSNPLTFGCGTKVEIKSG
chain 2: DIVMTQSPDSLAVSLGERATINCKASQSVSNDVAWYQQKPGQPPKLLIYYTSSRYAGVPDRFSGSGSGTDFTLTISSLQAEDVAVYYCQQDYNSPPTFGGGTKLEIKRTVAAPSVFIFPPSDEQLKSGTASVVCLLNNFYPREAKVQWKVDNALQSGNSQESVTEQDSKDSTYSLSSTLTLSKADYEKHKVYACEVTHQGLSSPVTKSFNRGECGPGGGSPG[about 100 residues not given here]SKWELVDPYGNWGQGTMVTVSSGGGGSGGGGSGGGGSNFMLTQPHSVSESPGKTITISCTRSSGSIAGNYVQWYQQRPGSAPIIVIYEDNQRPSGVPDRFSGSIDSSSNSASLTISRLKTEDEADYYCQSYEASNVVFGGGTKLTVLSG
With B1, the EC50 was 750 pM.

B2: 53L1 tribody (other)
chain 1: QVQLVQSGAEVKKPGASVKVSCKASGYSFTSYYMHWVKQSPGQGLEWIGRINPNNGVTLYNQKFKDRVTMTRDTSISTAYMELSRLRSDDTAVYYCARSTMITNYVMDYWGQGTLVTVSSASTKGPSVFPLAPSSKSTSGGTAALGCLVKDYFPEPVTVSWNSGALTSGVHTFPAVLQSSGLYSLSSVVTVPSSSLGTQTYICNVNHKPSNTKVDKKVEPKSCDKTHTGPGGGSPGQVQLVQSGAELKKPGASVKVSCKASGYTFTRYTMHWVRQAPGQCLEWMGYINPSRGYTNYNQKFKDKATLTADKSTSTAYMELRSLRSDDTAVYYCARYYDDHYSLDYWGQGTLVTVSSASGGGGSGGGGSGGGGSAGDIQLTQSPSILSASVGDRVTITCRASSSVSYMNWYQQKPGKAPKRWIYDTSKVASGVPYRFSGSGSGTEYTLTISSMQPEDFATYYCQQWSSNPLTFGCGTKVEIKSG
chain 2: DIVMTQSPDSLAVSLGERATINCKASQSVSNDVAWYQQKPGQPPKLLIYYTSSRYAGVPDRFSGSGSGTDFTLTISSLQAEDVAVYYCQQDYNSPPTFGGGTKLEIKRTVAAPSVFIFPPSDEQLKSGTASVVCLLNNFYPREAKVQWKVDNALQSGNSQESVTEQDSKDSTYSLSSTLTLSKADYEKHKVYACEVTHQGLSSPVTKSFNRGECGPGGGSPG[about 100 residues not given here]TKWELVDPYDYWGQGTMVTVSSGGGGSGGGGSGGGGSNFMLTQPHSVSESPGKTITISCTRSSGSIAGNYVQWYQQRPGSAPIIVIYEDNQRPSGVPDRFSGSIDSSSNSASLTISRLKTEDEADYYCQSYEASNVVFGGGTKLTVLSG
On to B2, for which the EC50 was 750 pM.

By EC50 is commonly meant the concentration needed to bring the measured effect to its halfway point.

(Values after patent US20260242504A1 (published 2026).)
